Values joined by “and” are separate entries in the source; they are usually repeats but may differ in a detail not shown here. Equal entries are not always repeated. Hit rate of the full screen: of about 110,000 compounds, about 230 (0.21%) showed an effect of 50% or more. The list shows a part of the results.
Target: DPAP1 (Plasmodium falciparum, UniProt Q8IIJ9)
Test: primary screen, percent inhibition; read by cleavage of a fluorogenic dipeptide substrate; higher = more effect of the substance
Set-up: species or system P. falciparum D10 trophozoite lysates; single well
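Note: 30 min substrate incubation versus DMSO and 10 µM JCP410 controls.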

DPAP1, sequence (Q8IIJ9 whole entry, looked up): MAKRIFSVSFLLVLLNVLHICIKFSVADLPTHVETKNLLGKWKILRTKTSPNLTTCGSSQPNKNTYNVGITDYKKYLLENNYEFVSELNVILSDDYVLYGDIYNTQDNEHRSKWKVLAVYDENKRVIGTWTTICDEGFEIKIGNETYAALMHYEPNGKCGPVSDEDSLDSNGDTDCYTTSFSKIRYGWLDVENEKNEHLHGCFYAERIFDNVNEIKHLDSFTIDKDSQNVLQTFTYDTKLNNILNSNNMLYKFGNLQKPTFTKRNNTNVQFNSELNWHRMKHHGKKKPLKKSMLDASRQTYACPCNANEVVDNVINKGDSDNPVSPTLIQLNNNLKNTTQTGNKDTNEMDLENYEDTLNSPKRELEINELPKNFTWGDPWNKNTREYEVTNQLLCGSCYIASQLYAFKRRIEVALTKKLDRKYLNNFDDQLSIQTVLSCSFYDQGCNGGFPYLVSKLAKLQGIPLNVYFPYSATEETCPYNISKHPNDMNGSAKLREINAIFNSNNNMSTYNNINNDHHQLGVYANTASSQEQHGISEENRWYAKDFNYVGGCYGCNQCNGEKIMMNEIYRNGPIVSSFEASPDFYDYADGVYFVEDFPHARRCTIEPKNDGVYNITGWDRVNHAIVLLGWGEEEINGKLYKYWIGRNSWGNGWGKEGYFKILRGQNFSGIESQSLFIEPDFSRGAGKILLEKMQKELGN

Structure (SMILES)	% Inhibition @ 10 uM
CC(=O)c1cnc2nc(C(F)(F)F)nn2c1C	3.36%
Cc1ccc(C2CC(C(F)(F)F)n3ncc(C(=O)NCc4cn(C)nc4C)c3N2)cc1 (centres unmarked)	4.49%
Cc1ccc2nc3c(cc(C(=O)NC4CCCC4)c(=N)n3CC3CCCO3)c(=O)n2c1 (centres unmarked)	-5.14%
Cc1cccn2c(=O)c(/C=C(\C#N)C(=O)NCCc3ccccc3)c(Oc3ccc(Cl)cc3)nc12	-3.23%
OC1CCCN(Cc2cccc(C(F)(F)F)c2)C1 (centres unmarked)	3%
CCc1ccccc1NC(=O)c1cnn(C)c1C	-0.63%
CC(C)CC(C(=O)NCC#N)c1cccc(-c2cccc(F)c2)c1 (centres unmarked)	0.173%
COc1ccc(CN2CCN(C(=O)Cn3nc(C)n4cccc4c3=O)CC2)c(OC)c1OC	-7.34%
Cc1ccc(-c2cc(C(=O)NCc3ccccn3)c3ccccc3n2)o1	-1.08%
CCOc1cc(C)c(Cl)cc1S(=O)(=O)Nc1ccccn1	-1.72%
CCc1ccc(CNC(=O)Cn2ccc3cc(S(=O)(=O)N4CCCC4)ccc32)cc1	-1.08%
N#CCNC(=O)C(Cc1cccc(Cl)c1)NC(=O)OCc1ccccc1 (centres unmarked)	-5.21%
Cc1cc(C)n(C(=O)c2cc(F)c(F)cc2Cl)n1	-1.8%
C=CCc1ccc(OCC(O)CO)c(OC)c1 (centres unmarked)	0.132%
COc1ccc(Cl)cc1-c1nnc(S)n1C	-1.33%
CC(C)/C(=N\NC(N)=S)c1ccccc1	1.25%
O=C(Nc1c(C(=O)O)oc2ccccc12)c1ccccc1	4.08%
CCCn1c2ccccc2c2cnn(CC(=O)Nc3cc(-c4ccccc4OCC)no3)c(=O)c21	2.36%
CC(=O)c1cc(-c2ccccc2)n(CC(=O)NC(C)c2ccccc2)c1C (centres unmarked)	3.07%
COc1cc(/C=C2\N=C(c3cc(F)c(F)cc3Cl)OC2=O)cc(OC)c1OC	1.25%
COc1ccccc1OCCSc1nnnn1C1CCCCC1	-1.48%
CCSC1=C(C#N)C2(CCN(C)CC2)C(C#N)C(=O)N1 (centres unmarked)	-1.6%

Structure (SMILES)	% Inhibition @ 10 uM
COc1cccc2c1cc1c(=O)n(CC(=O)N3CCN(c4ncccn4)CC3)nc(C)n12	6.35%
CCC(=O)c1c(O)oc2ccccc2c1=O	-8.86%
CCc1nn(CC(=O)N2CCCCC2C)c(=O)c2cc3occc3n12 (centres unmarked)	-2%
Cc1ccc2c(c1)[C@H]1OCC[C@H]1[C@@H](c1cccs1)N2	5.99%
O=C(c1ccc2nc(-c3ccccc3)c(-c3ccccc3)nc2c1)N1CCOCC1	0.775%
c1cncc(CNc2ncnc3c2nc2n3CCCCC2)c1	3.96%
CC(=O)N/C(=C/c1ccccc1Br)C(=O)NC1CCCCCC1	-0.469%
CCCCN1C(=O)c2[nH]nc(-c3ccccc3O)c2C1c1cc(OC)c(OC)c(OC)c1 (centres unmarked)	-9.07%
Cc1cc(C)nc(SCCN2CCCCC2)n1	-0.267% and 6.6%
O=C(Cc1ccccc1[N+](=O)[O-])c1ccccc1	3.34%
COc1ccc(OC2CCN(S(=O)(=O)c3cccc(S(=O)(=O)N4CCOCC4)c3)CC2)cc1	-2.84%
Cc1ccccc1C(=O)Nc1cccc(Cl)c1Cl	-1.22%
CCCNC(=O)c1ccc(CN2CC(=O)N3CCCCC3C2=O)cc1 (centres unmarked)	3.95%
CN(C1CCCCC1)S(=O)(=O)N1CCCC(C(=O)NCCc2cccs2)C1 (centres unmarked)	-6.93%
C=CCc1cccc2cc(C(=O)N3CCCCC3)c(=O)oc12	-3.79%
O=C1CC(c2ccccc2)C(C(=O)O)N1 (centres unmarked)	1.8%
CCOc1ccccc1C1C(C(=O)N2CCOCC2)=C(C)Nc2nc3ccccc3n21 (centres unmarked)	7.83%
O=[N+]([O-])c1ccccc1S(=O)(=O)N1CCCCC1	-3.62%
CC(C)(C)OC(=O)N[C@@H](Cc1ccccc1)C(=O)NCC#N	-1.83%
CCCCNC(=O)C1CCCNC1=O (centres unmarked)	2.03%
CN1C(=O)C(=CNCC2CCNCC2)C(=O)N(C)C1=O	-7.09%
O=c1oc(-c2ccccc2)nc2cc3ccccc3cc12	-5.2%

Structure (SMILES)	% Inhibition @ 10 uM
CC1CCCCN1C(=O)c1ccccc1Cl (centres unmarked)	5.43%
Cc1[nH]c2ccccc2c1C1CCN(S(=O)(=O)c2ccc(C(C)(C)C)cc2)CC1	0.66%
Cc1ccccc1-c1nc2c(c(SCc3ccncc3)n1)Cc1c(CO)cnc(C)c1O2	-1.97%
CN(C1CCCCC1)S(=O)(=O)N1CCCC(C(=O)N2CCN(c3ncccn3)CC2)C1 (centres unmarked)	-7.21%
O=C(/C=C/c1ccccc1)Nc1cccc([N+](=O)[O-])c1	1.29%
O=S(=O)(c1ccc(Cl)cc1Br)N1CCCCC1	1.13%
COc1ccc(OC)c(NC(C)C)c1	5.92%
CCC(=O)Nc1ncc2c(n1)CC(c1ccc(C(C)(C)C)cc1)CC2=O (centres unmarked)	-5.23%
CS(=O)(=O)N(CC(=O)N1CCCCC1)c1cc(Cl)cc(Cl)c1	-1.12%
COc1ccc(C=C2C(=O)NC(=O)NC2=O)cc1[N+](=O)[O-]	-5.94%
Cc1nn(-c2ccccc2)c2c1N(CC(=O)NCCCN1CCc3ccccc3C1)C(=O)CS2	-3.98%
O=C(CSc1ccc(Cl)cc1)NCCCN1CCOCC1	-1.42%
CC(C)(C)NS(=O)(=O)c1ccc(NC(=O)c2ccc(Br)cc2)cc1	-2.03%
COc1ccc(CN2C(=O)c3cccnc3C2=O)cc1S(=O)(=O)NC(c1cccs1)C(C)C (centres unmarked)	-5.09%
CC(C)CC(C(=O)Nc1cccc(O)c1)N1C(=O)c2ccccc2C1=O (centres unmarked)	-5.38%
COC(=O)c1sc(NS(=O)(=O)c2cccc3nsnc23)c(C(=O)OC)c1C	-5.57%
Cc1cc(C)nc(SCC(=O)Nc2cc(Cl)cc(Cl)c2)n1	-7.14%
Cc1ccc(NC(=O)c2c(N)sc3c2CCCC3)cc1C	27.9%
CCCCn1ncc(O)c(OC)c1=O	3.48%
CCNC(=O)c1ccc2c(c1)c(C)c(C)n2Cc1ccc(F)cc1	-0.48%
Cc1cc(Br)ccc1OCC(=O)Nc1ccc(S(=O)(=O)Nc2ccc(F)cc2)cc1	3.35%

Source: paper PMC6919601, “Identification of Plasmodium dipeptidyl aminopeptidase allosteric inhibitors by high throughput screening” (PLoS ONE, 2019)
